The values below come from the supplement of paper PMC4723716.

± gives the uncertainty stated by the source. In all, about 9,900 compounds were measured (“viability index relative to DMSO control”: median about 1, lowest 2% from about 0.85 on). Some of the results follow.

The experiment deals with Plasmodium falciparum NF54 stage V gametocytes. Nature of the experiment: viability index relative to DMSO control (fraction); higher = less gametocyte killing. The following applies: 2.5 µM, library set: Broad Institute DOS, incubation time: 72 h. The procedure, abridged:
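P. falciparum NF54 stage V gametocytes in serum-free screening medium (0.75% gametocytemia, 1.25% hematocrit, 10 µl) were incubated with compound at 2.5 µM in 1,536-well plates for 72 hr at 37°C under low oxygen. Then 3 µl of 2.5 µM MitoTracker Red CMXRos plus 0.13% saponin was added for one to two hours. One field per well was imaged, 20–70 µm2 red particles were counted, and the viability index was the count divided by the plate mean of DMSO wells.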
`CNC[C@@H]1OCCCC[C@H](C)Oc2ccc(NC(=O)Nc3ccc(OC)cc3)cc2C(=O)N([C@@H](C)CO)C[C@@H]1C` showed a viability index of 1.04 ± 0.1. `CN(C)C(=O)C[C@H]1C[C@H]2c3cc(NC(=O)c4cccnc4)ccc3O[C@H]2[C@@H](CO)O1` returned a viability index of 1.0792 ± 7.3e-05. The same measure for `C[C@H]1CN([C@@H](C)CO)C(=O)CCCn2nncc2CO[C@@H]1CN(C)Cc1ccc(C(=O)Nc2ccccc2N)cc1`: 1.01 ± 0.052; for `COc1ccc(NC(=O)N2C[C@@H](O)COC[C@H]3O[C@@H](CC(=O)N4CCCCC4)CC[C@@H]32)cc1`: 0.989 ± 0.018; for `CCC(=O)N1C[C@@H](C)[C@@H](OC)CN(C)C(=O)c2ccc(NC(=O)CC(F)(F)F)cc2OC[C@H]1C`: 1.02 ± 0.08. Regarding `N#C[C@H]1[C@@H](c2ccc(C3=CCCCC3)cc2)[C@@H](CO)N1S(=O)(=O)c1ccccc1`, the viability index came to 1.07 ± 0.03. For `Cc1noc(C)c1NC(=O)N(C)C[C@H]1OCc2cnnn2CCCC(=O)N([C@H](C)CO)C[C@H]1C`, the viability index was 1.028 ± 0.003. The same measure for `C[C@@H]1CN([C@@H](C)CO)C(=O)CCCn2cc(nn2)CO[C@H]1CN(C)C(=O)Nc1cccc(C(F)(F)F)c1`: 0.9906 ± 0.0042; for `CN1CCN(C(=O)C[C@H]2C[C@H]3c4cc(NS(C)(=O)=O)ccc4O[C@H]3[C@@H](CO)O2)CC1`: 1.1 ± 0.042. The same measure for `O=C1NCCOCn2nncc2CC[C@@H]1Cc1cccc(Cl)c1`: 1.06 ± 0.078; for `C[C@H](NC(=O)C[C@@H]1CC[C@@H]2[C@H](COC[C@H](O)CN2Cc2ccc(C(F)(F)F)cc2)O1)c1ccccc1`: 1.08 ± 0.021; for `CC(C)NC(=O)N1[C@H](CO)[C@@H](c2ccccc2)C12CN(Cc1cc(F)cc(F)c1)C2`: 1.04 ± 0.063. `O=C(CN1CCOCC1)N1CCCCN2[C@@H](CO)[C@H](c3ccc(Br)cc3)[C@@H]2C1` came in with a viability index of 1.03 ± 0.057. To `C[C@@H]1CN([C@H](C)CO)C(=O)c2ccccc2-c2ccccc2CO[C@H]1CN(C)C(=O)NC1CCCCC1` belongs 0.9899 ± 0.0044.

With `CC(C)[C@@H]1C/C=C/C[C@@H](C)Oc2ccccc2C(=O)N(C)[C@H](Cc2ccccc2)C(=O)N1.CC(C)[C@@H]1C/C=C\C[C@@H](C)Oc2ccccc2C(=O)N(C)[C@H](Cc2ccccc2)C(=O)N1`, the viability index was determined as 0.945 ± 0.053. Take `C[C@@H]1CCCCO[C@H](CN(C)S(=O)(=O)c2ccc(F)cc2)[C@@H](C)CN([C@H](C)CO)C(=O)c2cc(N(C)C)ccc2O1`: the viability index was 1.11 ± 0.12. Consider `O=C([C@H]1[C@H](CO)[C@H]2Cn3c(ccc(C4=CCCCC4)c3=O)[C@@H]1N2)N1CCC(Cc2ccccc2)CC1`, for which the viability index is 1.08 ± 0.06. To `CN1C(=O)c2cc(NC(=O)Cc3cccs3)ccc2OC[C@@H]2O[C@@H](CC(=O)NCCCN3CCOCC3)CC[C@H]21` belongs 1.08 ± 0.023; to `O=S(=O)(c1ccccc1F)N1CC[C@H]2[C@H](CO)Nc3ccc(C4=CCCCC4)cc3[C@H]21`, 1.02 ± 0.084; to `O=C(C[C@H]1C[C@H]2c3cc(NC(=O)C4CCOCC4)ccc3O[C@H]2[C@H](CO)O1)NCc1cccnc1`, 1.086 ± 0.0019.

For `CN1C(=O)c2cc(NC(=O)Nc3ccccc3Cl)ccc2OC[C@@H]2O[C@@H](CC(=O)NCCCN3CCOCC3)CC[C@@H]21`, the viability index was found to be 1.16 ± 0.13. The same measure for `O=C(NCC[C@@H]1CC[C@H](NC(=O)c2ccccc2F)[C@H](CO)O1)c1cnccn1`: 0.934 ± 0.11; for `CNC(=O)C[C@@H]1CC[C@H]2[C@@H](COC[C@H](O)CN2Cc2ccccc2F)O1`: 1.09 ± 0.044.

Molecule `COCC(=O)N(C[C@@H]1[C@@H](c2ccccc2)[C@@H](CO)N1C(=O)NC(C)C)C(C)C` gave a viability index of 0.965 ± 0.022. Consider `CCCNC(=O)N1C[C@@H]2[C@H](c3ccccc31)[C@H](CO)N2C(=O)CN1CCOCC1`, for which the viability index came to 1.08 ± 0.081. The same measure for `CC(C)C[C@H]1COCc2cn(nn2)CC[C@@H](C)C(=O)N1`: 1.08 ± 0.018; for `COc1ccc2c3c([nH]c2c1)[C@H](CO)N(C[C@]31CN(C1)C(=O)c1cccnc1)C(=O)CN(C)C`: 0.992 ± 0.042. Turning to `C/C=C/c1ccc([C@H]2[C@H]3CNC[C@@H]2N3S(=O)(=O)Cc2ccccc2)cc1`, the viability index is 1.06 ± 0.047.

Turning to `COc1ccc(CN(C)C[C@H]2OCc3cnnn3CCCC(=O)N([C@H](C)CO)C[C@H]2C)cc1`, the viability index stood at 1.017 ± 0.0013. To `C[C@H]1CN([C@@H](C)CO)C(=O)c2cc(Br)cnc2O[C@H]1CN(C)Cc1ccc(Oc2ccccc2)cc1` belongs 1.005 ± 0.0062; to `COCCNC(=O)C[C@@H]1CC[C@H]2[C@@H](COc3ccc(NC(=O)Nc4cccc(F)c4)cc3C(=O)N2C)O1`, 1.08 ± 0.08; to `C/C=C/c1ccccc1[C@H]1[C@@H](CO)N(C(=O)NC2CCCCC2)[C@H]1C#N`, 1.13 ± 0.092. To `CCCC(=O)Nc1ccc2c(c1)OC[C@@H](C)N(C(=O)c1cccnc1)C[C@H](C)[C@H](OC)CN(C)C2=O` belongs 1.112 ± 0.009; to `CO[C@@H](C(=O)N(C)C[C@@H]1OCc2ccccc2-c2ccccc2C(=O)N([C@@H](C)CO)C[C@H]1C)c1ccccc1`, 0.981 ± 0.054. To `CN(C)C(=O)C[C@H]1C=C[C@@H](NC(=O)c2ccc(F)cc2)[C@H](CO)O1` belongs 1.06 ± 0.019; to `CCC(=O)N1[C@@H]2CN(C(=O)Nc3ccc(Cl)cc3)c3ccccc3[C@@H]2[C@@H]1CO`, 1.02 ± 0.017; to `C[C@@H](NC(=O)C[C@H]1CC[C@@H]2[C@H](COC[C@@H](O)CN2Cc2ccc(C(F)(F)F)cc2)O1)c1ccccc1`, 0.9941 ± 0.00089.

Take `Cc1ccc(S(=O)(=O)Nc2ccc3c(c2)C(=O)N(C)[C@@H]2CC[C@H](CC(=O)NCCc4ccncc4)O[C@H]2CO3)cc1`: the viability index was 1.04 ± 0.026. The same measure for `CN1CCN(C(=O)C[C@@H]2CC[C@H]3[C@@H](COc4ccc(NC(=O)c5cccs5)cc4C(=O)N3C)O2)CC1`: 1.048 ± 0.0044; for `N#C[C@@H]1[C@H](c2ccccc2)[C@@H](CO)N1C(=O)c1ccc2c(c1)OCO2`: 1.11 ± 0.041; for `N#C[C@@H]1N[C@@H](CO)[C@@H]1c1ccc(C2=CCCC2)cc1`: 1.11 ± 0.038.

The molecule `COCC(=O)N(C)C[C@@H]1[C@@H](c2ccccc2)[C@H](CO)N1C(=O)Cc1ccncc1` gave a viability index of 1 ± 0.051. To `O=C(Nc1cccc(Cl)c1)N1C[C@H]2[C@@H](c3ccccc31)[C@H](CO)N2Cc1cccnc1` belongs 1.03 ± 0.07; to `C/C=C/c1ccc([C@@H]2[C@H](CO)N[C@H]2CNS(=O)(=O)c2ccccc2)cc1`, 1 ± 0.079; to `O=C(Nc1ccc2c(c1)[C@H]1C[C@@H](CC(=O)N3CCCCC3)O[C@H](CO)[C@H]1O2)NC1CCCCC1`, 1.13 ± 0.038. To `CCCC(=O)Nc1ccc2c(c1)C(=O)N(C)C[C@@H](OC)[C@@H](C)CN(Cc1ccc(F)cc1)[C@H](C)CO2` belongs 1.01 ± 0.034; to `CC(C)NC(=O)Nc1ccc2c(c1)C(=O)N(C)[C@@H]1CC[C@H](CC(=O)NCc3ccc(F)cc3)O[C@H]1CO2`, 1 ± 0.064. To `COc1ccc(S(=O)(=O)N(C)C[C@H]2Oc3ccc(NC(=O)Nc4ccc(C(F)(F)F)cc4)cc3C(=O)N([C@H](C)CO)C[C@@H]2C)cc1` belongs 1.02 ± 0.028; to `C[C@@H](NC(=O)C[C@@H]1CC[C@H]2[C@@H](COc3ccc(NS(=O)(=O)c4ccc(Cl)cc4)cc3C(=O)N2C)O1)c1ccccc1`, 1.02 ± 0.056; to `N#C[C@@H]1[C@@H](c2ccc(C3=CCCCC3)cc2)[C@H](CO)N1S(=O)(=O)c1ccccc1`, 1.12 ± 0.024.

The molecule `COCC(=O)N1[C@H](C#N)[C@H](c2ccccc2-c2ccccc2F)[C@@H]1CO` registered a viability index of 1.07 ± 0.013. In turn, `O=C(C[C@H]1CC[C@@H]2[C@H](COC[C@@H](O)CN2C(=O)Cc2ccccc2)O1)NC1Cc2ccccc2C1` showed a viability index of 1.1 ± 0.052.

As for `O=C(NCC[C@H]1CC[C@H](NC(=O)c2ccccc2F)[C@H](CO)O1)c1cnccn1`, the viability index is 0.94 ± 0.091. To `O=C(c1ccccn1)N1C[C@H]2[C@@H](c3ccccc31)[C@@H](CO)N2C(=O)Nc1ccccc1Cl` belongs 1.05 ± 0.026; to `C[C@H]1CCCCO[C@@H](CN(C)Cc2ccncc2)[C@@H](C)CN([C@@H](C)CO)C(=O)c2cc(NS(=O)(=O)c3ccc(Cl)cc3)ccc2O1`, 0.992 ± 0.046. The same measure for `C[C@H]1CCCCO[C@H](CN(C)C(=O)c2ccncc2)[C@@H](C)CN([C@@H](C)CO)C(=O)c2cc(NC(=O)CCC(F)(F)F)ccc2O1`: 1.02 ± 0.015; for `Cc1noc(C)c1S(=O)(=O)N(C)C[C@H]1Oc2ccc(NC(=O)c3ccncc3)cc2CC(=O)N([C@H](C)CO)C[C@H]1C`: 0.934 ± 0.27. The same measure for `Cn1cnc(S(=O)(=O)N[C@H]2CC[C@H](CC(=O)NCC3CCCCC3)O[C@H]2CO)c1`: 0.989 ± 0.11. As to `O=C1N[C@H](c2ccccc2)COCc2cnnn2CC[C@@H]1Cc1ccc(C(F)(F)F)cc1`, the viability index was determined as 0.97 ± 0.03. With `CCS(=O)(=O)N1CCCCN2[C@H](CO)[C@@H](c3ccc(C#Cc4ccccn4)cc3)[C@@H]2C1`, the viability index turned out to be 1.02 ± 0.011. The same measure for `CC(C)NC(=O)N(C)C[C@@H]1Oc2c(NS(=O)(=O)c3cccs3)cccc2C(=O)N([C@@H](C)CO)C[C@@H]1C`: 0.947 ± 0.0099. The same measure for `COc1ccc(CNC(=O)N(C)C[C@H]2OCc3ccccc3-c3c(n(C)c4ccccc34)C(=O)N([C@H](C)CO)C[C@@H]2C)cc1`: 0.93 ± 0.067; for `COc1ccccc1S(=O)(=O)N1C[C@@H]2N[C@H](C1)[C@H]2c1ccc(-c2cccnc2)cc1`: 1.1 ± 0.066; for `CC[C@@H]1C/C=C\C[C@@H](c2ccccc2)NC(=O)CCC(=O)N1`: 1.104 ± 0.0096. The same measure for `CNC[C@H]1OCCCC[C@H](C)Oc2ccc(NS(=O)(=O)c3ccc(F)cc3)cc2C(=O)N([C@H](C)CO)C[C@@H]1C`: 1.02 ± 0.045; for `CCCC(=O)Nc1ccc2c(c1)OC[C@@H](C)N(CC1CCOCC1)C[C@H](C)[C@H](OC)CN(C)C2=O`: 1.005 ± 0.0063. In the case of `Cc1ccccc1-c1ccc([C@@H]2[C@@H]3CN(C(=O)C4CCOCC4)C[C@H]2N3)cc1`, the viability index is 1.1 ± 0.058. To `C[C@@H]1CN([C@H](C)CO)C(=O)CCCn2nncc2CO[C@@H]1CN(C)Cc1cccc(C(F)(F)F)c1` belongs 1.04 ± 0.039; to `COc1ccc2c3c([C@@H](CO)N(Cc4cc(OC)cc(OC)c4)C[C@]33CN(C3)C(=O)CN3CCOCC3)n(C)c2c1`, 0.879 ± 0.02; to `C[C@@H]1CN([C@@H](C)CO)C(=O)CCCn2nncc2CO[C@H]1CN(C)S(=O)(=O)c1ccc(Oc2ccccc2)nc1`, 1 ± 0.074. Molecule `CCCC(=O)Nc1ccc2c(c1)C(=O)N(C)C[C@H](OC)[C@@H](C)CN(C(=O)c1ccccn1)[C@@H](C)CO2` displayed a viability index of 1.02 ± 0.062.
